# From PubChem BioAssay AID602310 (National Center for Advancing Translational Sciences (NCATS), 2012)
# In all, about 410,000 compounds went through this assay and about 310 (0.076%) were called active. This list was built around the results that the source calls inconclusive (neither active nor inactive); the mix of calls is not that of the screen. Calls come from the whole dose curve; as a rule, active = well fitted curve in the direction sought with a large enough effect; inconclusive = small, poorly fitted or top-dose-only effect; inactive = flat fitted curve, though single readings scatter. A potency beside an inconclusive call is a rough fit, not a confirmed value.
# Biological target: DNA dC->dU-editing enzyme APOBEC-3G (Homo sapiens) (UniProt Q9HC16)
# Test: qHTS for Inhibitors of Vif-A3G Interactions: qHTS; note: nearly all actives have a fitted effect of over 60% in size;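 for activity, negative = active: hits raise eYFP signal because A3G escapes Vif-driven loss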
# Settings: HeLa A3G-eYFP + Vif (tagged APOBEC3G with the HIV-1 protein that degrades it), YFP fluorescence, overnight; series mostly up to 46.1 µM; activity, negative = active: at the top concentration
# Summary of the method: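 Read-out is eYFP fluorescence (Ex 488/Em 500-530) from Vif-expressing HeLa A3G-eYFP cells; more signal means A3G escaped Vif-mediated degradation. Cells plated overnight, compound pinned in, incubated overnight at 37 deg C.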
# % is set by controls: 0 for no effect and ±100 for the full control effect; potency is the fitted concentration of half-maximal effect; tags give direction and shape of the fitted curve.
# UniProt Q9HC16, sequence (Q9HC16 whole entry, looked up): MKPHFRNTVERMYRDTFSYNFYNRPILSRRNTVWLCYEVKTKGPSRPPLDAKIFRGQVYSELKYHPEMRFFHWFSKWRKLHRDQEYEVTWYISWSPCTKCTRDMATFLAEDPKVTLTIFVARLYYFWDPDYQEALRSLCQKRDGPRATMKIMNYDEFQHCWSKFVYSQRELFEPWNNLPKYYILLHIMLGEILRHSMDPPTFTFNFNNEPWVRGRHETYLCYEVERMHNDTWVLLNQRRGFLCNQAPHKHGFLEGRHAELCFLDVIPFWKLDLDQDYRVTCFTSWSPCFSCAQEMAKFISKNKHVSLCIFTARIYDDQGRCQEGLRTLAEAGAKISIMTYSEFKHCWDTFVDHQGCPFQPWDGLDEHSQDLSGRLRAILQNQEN
Structure (SMILES),Potency,"activity, negative = active"
Cc1ccc(-c2nc(SCC(=O)NCC3CCCO3)c(-c3ccccc3)[nH]2)cc1 (stereo unspecified),"inconclusive: 20 µM [inhibitor, single point]",–
CCN(C(=O)COC(=O)c1ccc(S(=O)(=O)N2CCCc3ccccc32)cc1)C1CCS(=O)(=O)C1 (stereo unspecified),"inconclusive: 35.5 µM [inhibitor, single point]",–
CCC1=Nc2cc(C(=O)NC3CCCC3)ccc2Sc2ccc(Br)cc21,"inconclusive: 0.562 µM [inhibitor, partial curve, poor fit]",–
COc1cccc(N2CCN(C(=O)c3cc(C)oc3C)CC2)c1,"inconclusive: 7.94 µM [inhibitor, partial curve, poor fit]",–
CCOc1cc(/C=N/NC(=O)c2ccc(O)cc2)ccc1Oc1nc(Cl)ncc1F,–,inactive: -0.499%
O=C1Nc2c(Cl)cccc2C1=O,"inconclusive: 35.5 µM [inhibitor, single point]",–
O=[N+]([O-])c1cc(CN2CCCC2)ccc1Sc1ccc(Cl)cc1,–,inactive: 5.36%
CC(=C1SC(=S)NC1=O)c1ccccc1,–,inactive: -0.952%
COc1ccc(Cl)cc1NC(=O)CN(C)CC(=O)Nc1ccccc1N1CCOCC1,"inconclusive: 1.26 µM [inhibitor, full curve, poor fit]",–
COc1cccc(COc2ccccc2C2Nc3ccc(Br)cc3C(=O)N2NC(=O)c2ccncc2)c1 (stereo unspecified),"inconclusive: 35.5 µM [inhibitor, single point]",–
O=C(CCS(=O)(=O)Cc1ccccc1)Nc1nc2c(s1)CCCC2,"inconclusive: 15.8 µM [inhibitor, single point]",–
Cc1cc(C)c(S(=O)(=O)/N=C2/C=C(Sc3ncn[nH]3)C(=O)c3ccccc32)cc1C,"inconclusive: 17.8 µM [inhibitor, partial curve, poor fit]",–
Cc1cc(C(=O)N/N=C\C(Br)=C\c2ccccc2)c(C)o1,"inconclusive: 22.4 µM [inhibitor, single point]",–
Oc1c(C=NCc2ccncc2)sc2ccccc12,–,inactive: 1.71%
Cc1ccc(-c2nc(-c3cc4cccc(OCc5cccc(C)c5)c4oc3=O)no2)cc1,"inconclusive: 11.2 µM [inhibitor, partial curve]",–
CCN(CC)c1ccc(/C=C/c2ccncc2)cc1,"inconclusive: 2.82 µM [inhibitor, full curve, poor fit]",–
COc1ccc(C(=O)N(c2ccc(OC)cc2)S(=O)(=O)c2cccs2)cc1,–,inactive: -2.26%
N=c1c2c(ncn1Cc1ccco1)Oc1ccc3ccccc3c1C2c1ccccc1 (stereo unspecified),"inconclusive: 2.51 µM [inhibitor, full curve, poor fit]",–
COc1cc(/C=C2\SC(=N)N(c3ccc(F)cc3)C2=O)ccc1O,"inconclusive: 10 µM [inhibitor, partial curve]",–
C=CCOc1ccc2nc(NC(=O)OC)[nH]c2c1,"inconclusive: 1.12 µM [inhibitor, full curve]",–
Cn1c(N=Nc2ccccc2)nc2ccccc21,"inconclusive: 17.8 µM [inhibitor, single point]",–
COc1cc(Nc2nc3ccccc3c3nnc(C)n23)cc(OC)c1,–,inactive: -0.334%

Structure (SMILES),Potency,"activity, negative = active"
O=C(/C=C/Sc1ccccc1)c1ccccc1,"inconclusive: 15.8 µM [inhibitor, single point]",–
Oc1ccc(CN2CCCc3ccccc32)c2cccnc12,–,inactive: 2.48%
O=C1[C@@H](Oc2ccccc2)[C@@H](c2ccncc2)N1c1ccccc1,"inconclusive: 11.2 µM [inhibitor, partial curve]",–
CC1=CN2C(=N)/C(=C/c3ccc([N+](=O)[O-])o3)C(=O)N=C2S1,active: 22.4 µM,–
O=C1NC(c2cccc(OCc3ccccc3)c2)Nc2ccccc21 (stereo unspecified),"inconclusive: 0.562 µM [inhibitor, full curve, poor fit]",–
CCOc1ccc(C(C(=O)NCC2CCCO2)N(C(=O)c2snc(C(N)=O)c2N)c2ccc3c(c2)OCCO3)cc1 (stereo unspecified),–,inactive: -4.48%
COCCCNC(=O)C[C@H]1C[C@H](C(=O)N2CCOCC2)[C@@]2(CCC3CCCC3)c3[nH]c4cc(-c5ccco5)ccc4c3CCN2C1=O,–,inactive: 2.73%
O=C(C[n+]1cccc2cc(Cl)ccc21)c1ccc(I)cc1,"inconclusive: 22.4 µM [inhibitor, partial curve, poor fit]",–
CN(C)c1ccc(/C=C/c2ccnc3c(Cl)ccc(Cl)c23)cc1,active: 3.55 µM,–
Cc1cc2cc(C=C(C#N)C#N)c(Cl)nc2cc1C,"inconclusive: 22.4 µM [inhibitor, single point]",–
COc1ccc([N+](=O)[O-])cc1NC(=S)NC(NC(=O)Cc1ccc(OC)c(OC)c1)C(Cl)(Cl)Cl (stereo unspecified),"inconclusive: 15.8 µM [inhibitor, single point]",–
Cc1nnc2sc(SCC(=O)Nc3nccs3)nn2c1=O,–,inactive: 0.997%
COc1ccc(C2Nc3cccc4cccc(c34)N2)cc1,–,inactive: 1.19%
COc1ccc(NC(=O)C2Cc3c(-c4cccc(C(N)=O)c4)ccnc3O2)cc1 (stereo unspecified),"inconclusive: 7.08 µM [inhibitor, full curve]",–
Cc1nc(SCc2nc3ccccc3[nH]2)c2oc3cc(Br)ccc3c2n1,"inconclusive: 22.4 µM [inhibitor, single point]",–
Cc1c(C)n(Cc2ccc(F)cc2)c2ccc(C(=O)NCc3ccco3)cc12,"inconclusive: 3.16 µM [inhibitor, single point]",–
Cc1ccc(CC(=O)NCc2ccc(Cl)cc2)cc1,"inconclusive: 7.08 µM [inhibitor, full curve, poor fit]",–
c1ccc(Nc2n[nH]nc2-c2ccccc2)cc1,"inconclusive: 35.5 µM [inhibitor, partial curve, poor fit]",–
O=C1S/C(=C\c2ccc(N3CCOCC3)o2)C(=O)N1Cc1ccc(F)cc1,"inconclusive: 3.16 µM [inhibitor, partial curve, poor fit]",–
COc1ccc(N=c2oc3cc(O)ccc3cc2C(=O)NCC2CCCO2)c(OC)c1 (stereo unspecified),"inconclusive: 3.98 µM [inhibitor, single point]",–
Cc1ccc(C(NC(=O)C(C)C)c2cc([N+](=O)[O-])c3cccnc3c2O)cc1 (stereo unspecified),"inconclusive: 12.6 µM [inhibitor, single point]",–
COc1ccc(CCNC(=O)C(=O)NCC2CCCN2S(=O)(=O)c2ccccc2)cc1 (stereo unspecified),–,inactive: -7.74%

Structure (SMILES),Potency,"activity, negative = active"
O=C(C[n+]1cccc2ccccc21)c1ccc(NC(=O)c2ccccc2)cc1,"inconclusive: 12.6 µM [inhibitor, partial curve, poor fit]",–
C=Cc1ccc(Cn2c(=O)n(CCCOC)c(=O)c3sccc32)cc1,–,inactive: 2.16%
c1ccc2c(c1)OCC(c1nnc3sc(-c4cnccn4)nn13)O2 (stereo unspecified),–,inactive: -0.551%
CC(=O)NS(=O)(=O)c1ccc2c(c1)C(=O)c1cc(S(=O)(=O)NC(C)=O)ccc1-2,–,inactive: 3.66%
COc1cccc(Nc2sc(C(=O)c3ccc(Cl)cc3)c(N)c2C(=O)NCc2ccc(C)cc2)c1,"inconclusive: 4.47 µM [inhibitor, partial curve, poor fit]",–
CCOc1ccc(NS(=O)(=O)c2cc(NC(=O)c3cccc(C)c3)ccc2Cl)cc1,"inconclusive: 5.01 µM [inhibitor, full curve]",–
CC(C)CN(C(=O)COC(=O)c1ccc([N+](=O)[O-])s1)c1c(N)n(Cc2ccccc2)c(=O)[nH]c1=O,"inconclusive: 35.5 µM [inhibitor, single point]",–
Cc1ccc([C@H]2N[C@]3(CCCN(Cc4ccc(C(F)(F)F)cc4)C3=O)[C@H]3C(=O)N(Cc4ccccc4)C(=O)[C@@H]23)cc1,–,inactive: -7.45%
O=C(CSc1nc(-c2ccco2)cc(C(F)(F)F)n1)Nc1ccc2c(c1)OCO2,"inconclusive: 25.1 µM [inhibitor, single point]",–
O=C(Nc1ccc(S(=O)(=O)N2CCOCC2)cc1)c1ccc([N+](=O)[O-])o1,–,inactive: -12.3%
COc1ccc(-n2cc(C#N)c(=O)n(Cc3ccc(F)cc3)c2=O)cc1,"inconclusive: 11.2 µM [inhibitor, partial curve, poor fit]",–
Cc1nc2c(OCc3ccc(Cl)cc3)cccn2c1N(C)Cc1cccs1,"inconclusive: 35.5 µM [inhibitor, single point]",–
CC(=O)Nc1ccc(C2=NN(c3ccccc3)C(c3ccccc3)C2)cc1 (stereo unspecified),"inconclusive: 28.2 µM [inhibitor, single point]",–
COC(=O)c1ccccc1C(=O)c1cccc2ccccc12,"inconclusive: 14.1 µM [inhibitor, single point]",–
CCC(C)N(c1ccc(/C=C/c2ccnc3ccccc23)cc1)C(C)CC (stereo unspecified),"inconclusive: 2.51 µM [inhibitor, full curve, poor fit]",–
O=C(NCCN1C(=O)S/C(=C\c2ccc(OC(F)F)cc2)C1=O)c1cnccn1,"inconclusive: 2.82 µM [inhibitor, full curve, poor fit]",–
O=C(N/N=C/c1ccc(O)cc1)c1cc(-c2ccc3c(c2)OCO3)n[nH]1,"inconclusive: 15.8 µM [inhibitor, single point]",–
C=CCOc1ccc(C(=O)/C=C2/C(=O)Nc3ccccc32)cc1,"inconclusive: 35.5 µM [inhibitor, partial curve, poor fit]",–
CCOc1cc(/C=C2\C(=O)N(CCC#N)N=C2C)ccc1OCC(N)=O,–,inactive: 2.19%
COC(=O)c1ccc(-n2c(C)cc(C(=O)CSc3cccc[n+]3[O-])c2C)cc1,–,inactive: -0.417%
COc1ccc(-c2nnc(NC(=O)c3ccc([N+](=O)[O-])o3)o2)c(OC)c1,"inconclusive: 20 µM [inhibitor, single point]",–
CC(=O)c1ccc(Nc2ccc([N+](=O)[O-])c3nonc23)cc1,"inconclusive: 11.2 µM [inhibitor, single point]",–
